Measured values as given in PubChem BioAssay AID720709 (National Center for Advancing Translational Sciences (NCATS), 2013).
In all, about 360,000 compounds went through this assay and about 520 (0.14%) were called active. This list was built around the results that the source calls inconclusive (neither active nor inactive); the mix of calls is not that of the screen. Calls come from the whole dose curve; as a rule, active = well fitted inhibition curve with a large enough effect; inconclusive = small, poorly fitted or top-dose-only effect; inactive = no such curve, though single readings can be large or run the other way. No potency is given beside an inconclusive call; the fits are too rough.

Target: Rap guanine nucleotide exchange factor 3 (Homo sapiens) (UniProt O95398)
Experiment: qHTS for Antagonist of cAMP-regulated guanine nucleotide exchange factor 3 (EPAC1): primary screen; note: nearly all actives have a fitted effect of over 50% in size
Details: EPAC1 GEF assay, Rap1b-BODIPY-GDP exchange fluorescence; series mostly up to 115 µM
Potency is the fitted concentration of half-maximal effect; tags give direction and shape of the fitted curve.

UniProt O95398, sequence (O95398 whole entry, looked up): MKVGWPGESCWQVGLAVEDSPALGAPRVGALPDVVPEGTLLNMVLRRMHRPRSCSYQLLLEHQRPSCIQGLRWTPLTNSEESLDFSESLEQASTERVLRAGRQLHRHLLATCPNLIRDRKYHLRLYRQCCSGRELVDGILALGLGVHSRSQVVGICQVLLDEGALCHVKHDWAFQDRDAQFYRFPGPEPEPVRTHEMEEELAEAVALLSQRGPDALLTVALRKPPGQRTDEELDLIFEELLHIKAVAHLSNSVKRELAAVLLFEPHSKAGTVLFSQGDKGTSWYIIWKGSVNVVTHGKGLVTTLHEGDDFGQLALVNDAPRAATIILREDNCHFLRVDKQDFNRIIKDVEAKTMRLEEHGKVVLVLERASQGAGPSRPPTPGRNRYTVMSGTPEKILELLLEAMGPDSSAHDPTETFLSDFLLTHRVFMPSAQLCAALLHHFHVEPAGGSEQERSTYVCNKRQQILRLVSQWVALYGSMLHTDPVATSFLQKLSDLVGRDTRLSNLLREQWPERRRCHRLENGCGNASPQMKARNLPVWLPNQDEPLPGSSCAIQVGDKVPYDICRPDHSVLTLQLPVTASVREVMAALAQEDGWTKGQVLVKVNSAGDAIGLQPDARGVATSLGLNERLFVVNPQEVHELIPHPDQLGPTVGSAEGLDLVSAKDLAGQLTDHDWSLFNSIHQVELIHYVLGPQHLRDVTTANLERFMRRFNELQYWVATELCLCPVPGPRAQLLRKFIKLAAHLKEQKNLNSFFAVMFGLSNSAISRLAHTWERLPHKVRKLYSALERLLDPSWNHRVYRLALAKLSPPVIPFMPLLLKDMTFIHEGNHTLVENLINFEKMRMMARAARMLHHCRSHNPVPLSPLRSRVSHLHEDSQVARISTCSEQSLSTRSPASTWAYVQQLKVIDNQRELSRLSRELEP

**Q.** With `CCN(CC(=O)Nc1c(F)cccc1F)C(=O)CCc1nc2sc3c(c2c(=O)[nH]1)CCCC3` as the molecule, how does the Potency read?
**A.** inconclusive [inhibitor, single point]

**Q.** With `CC(=O)NC(Cc1ccc(F)c(F)c1)C(=O)NC1CCN(c2c(Cc3ccccc3)c(C)nc3ncnn23)CC1` (stereo not given) as the molecule, how does the Potency read?
**A.** inconclusive [inhibitor, partial curve]

**Q.** With `Cc1ccc(C)c(N2CCN(C(=O)CCS(=O)(=O)c3ccc4c(c3)CCN4C(=O)C3CC3)CC2)c1` as the molecule, how does the Potency read?
**A.** inconclusive [inhibitor, single point]

**Q.** With `O=C(Nc1cccc(Cl)c1)C1CCCN(C2=NS(=O)(=O)c3ccccc32)C1` (stereo not given) as the molecule, how does the Potency read?
**A.** inconclusive [inhibitor, single point]

**Q.** `Cc1ccc(N2C(=O)CS(=O)C(c3ccccc3)C2=O)cc1C` (stereo not given) was tested. Which Potency did it give?
**A.** inconclusive [inhibitor, full curve, poor fit]

**Q.** For `COc1ccccc1N(C)S(=O)(=O)c1ccc(Cl)c(C(=O)NC2=NCCS2)c1`, which Potency is on record?
**A.** inconclusive [inhibitor, single point]

**Q.** For `COc1ccccc1CNC(=O)C(=O)c1cn(CC(=O)N2CCCC2)c2ccccc12`, which Potency is on record?
**A.** inconclusive [inhibitor, single point]

**Q.** `CCOC(=O)c1c(CSc2cccs2)n(C)c2cc(Br)c(O)c(CN(C)C)c12` was tested. Which Potency did it give?
**A.** inconclusive [inhibitor, partial curve]

**Q.** `CCN(CC)S(=O)(=O)c1ccc(OC)c(NC(=O)Cc2cccs2)c1` was tested. Which Potency did it give?
**A.** inconclusive [inhibitor, single point]

**Q.** For `O=C1c2ccccc2C(=O)c2c1ncn2-c1ccccc1`, which Potency is on record?
**A.** inactive

**Q.** Which Potency does the source give for `CCOc1ccc(Nc2cc(C)nc3nc(C)nn23)cc1` here?
**A.** inconclusive [inhibitor, single point]

**Q.** For `O=C(O)/C=C/c1ccc(O)cc1`, which Potency is on record?
**A.** inactive

**Q.** How did the Potency turn out when `CCOc1ccc(Cl)cc1-c1cc(C(=O)NCc2ccccc2OC)[nH]n1` was run?
**A.** inactive

**Q.** `O=C(CCO)c1ccc(O)cc1` was tested. Which Potency did it give?
**A.** inconclusive [inhibitor, partial curve, poor fit]

**Q.** `Cc1ccccc1OCC(=O)N1N=C(C(F)(F)F)CC1(O)C(C)(C)C` (stereo not given) was tested. Which Potency did it give?
**A.** inconclusive [inhibitor, partial curve]

**Q.** For `S=C(NCCCCN(Cc1ccc(Cl)cc1)c1ccc(Br)cn1)NCCCc1cnc[nH]1`, which Potency is on record?
**A.** inactive

**Q.** `Cc1nc(Cl)c(C(=O)NCCc2ccccc2)c(C)c1[N+](=O)[O-]` was tested. Which Potency did it give?
**A.** inconclusive [inhibitor, single point]

**Q.** With `CC(=O)n1cc([C@H]2C=C(C(=O)NCc3ccccc3)O[C@@H](OCc3ccc(CO)cc3)C2)c2ccccc21` as the molecule, how does the Potency read?
**A.** inconclusive [inhibitor, single point]

**Q.** With `CCCCC1CCC(C(=O)N(C)CC(=O)Nc2cccc(OC)c2)CC1` (stereo not given) as the molecule, how does the Potency read?
**A.** inconclusive [inhibitor, full curve, poor fit]

**Q.** How did the Potency turn out when `O=C(Nc1cccc(S(=O)(=O)NC2=NCCC2)c1)c1cc(-c2ccco2)nc2ccccc12` was run?
**A.** inconclusive [inhibitor, partial curve]

**Q.** How did the Potency turn out when `S=C(NCc1cccs1)Nc1cc(Cl)cc(Cl)c1` was run?
**A.** inconclusive [inhibitor, single point]

**Q.** How did the Potency turn out when `CCN(c1ccc(NC(=O)COC(=O)C2CCN(c3ccc(C(F)(F)F)cn3)CC2)cc1)C(C)C` was run?
**A.** inconclusive [inhibitor, full curve, poor fit]

**Q.** How did the Potency turn out when `COc1cccc(NC(=O)N(C)C[C@@H]2Oc3cc(Br)ccc3S(=O)(=O)N([C@@H](C)CO)C[C@H]2C)c1` was run?
**A.** inactive

**Q.** For `COc1ccc(NC(=O)CC2Nc3ccccc3NC2=O)c([N+](=O)[O-])c1` (stereo not given), which Potency is on record?
**A.** inactive

**Q.** With `COc1ccc(Cc2c(C)nc(N)nc2Cl)cc1` as the molecule, how does the Potency read?
**A.** inconclusive [inhibitor, full curve, poor fit]

**Q.** `CCN(Cc1ccccc1)C(=O)CN1C(=O)COc2ccc(S(=O)(=O)N3CCCCCC3)cc21` was tested. Which Potency did it give?
**A.** inconclusive [inhibitor, full curve, poor fit]

**Q.** For `OCCCNc1nnc(-c2ccccc2)c2ccccc12`, which Potency is on record?
**A.** inconclusive [inhibitor, single point]

**Q.** With `COc1ccc(CCNCC(=O)Nc2ccc(C)c(S(=O)(=O)N(C)C)c2)cc1OC` as the molecule, how does the Potency read?
**A.** inactive

**Q.** For `Cc1cc(N2C(=O)C(O)=C(C(=O)c3cc4ccccc4o3)C2c2ccc(OC(C)C)cc2)no1` (stereo not given), which Potency is on record?
**A.** inconclusive [inhibitor, full curve, poor fit]

**Q.** `COc1ccccc1CCNC(=O)CSCC(=O)Nc1ccccc1F` was tested. Which Potency did it give?
**A.** inactive

**Q.** Which Potency does the source give for `CCOc1ccc(N(CC(=O)NCCc2ccccc2)C(=O)CCC(=O)Nc2nccs2)cc1` here?
**A.** inconclusive [inhibitor, full curve, poor fit]

**Q.** Which Potency does the source give for `COc1ccccc1NC(=O)NNC(=O)CN1C(=O)COc2ccccc21` here?
**A.** inconclusive [inhibitor, single point]

**Q.** `CC(C)n1c(O)c(N=Nc2ccc(Cl)nn2)c2ccccc21` was tested. Which Potency did it give?
**A.** inactive

**Q.** Which Potency does the source give for `Cc1ccc(C(=O)Oc2cc(C)[nH]c(=O)c2[N+](=O)[O-])cc1` here?
**A.** inactive

**Q.** Which Potency does the source give for `Nc1ccn([C@@H]2O[C@H](C(=O)NCCc3ccc(F)cc3)[C@@H](O)[C@H]2O)c(=O)n1` here?
**A.** inactive

**Q.** `O=C(c1ccc2c(=O)n(C3CCCC3)c(=S)[nH]c2c1)N1CCCCCC1` was tested. Which Potency did it give?
**A.** inactive

**Q.** Which Potency does the source give for `CC(=O)N1CCN(c2ccc(NC(=S)NC(=O)COc3ccc(C(C)(C)C)cc3)cc2)CC1` here?
**A.** inconclusive [inhibitor, single point]

**Q.** Which Potency does the source give for `O=c1cc(CSc2ccccc2)nc(-c2ccncc2)[nH]1` here?
**A.** inconclusive [inhibitor, single point]

**Q.** For `CCN(CC)c1ccc(/C=C2/C(=O)ON=C2C)cc1`, which Potency is on record?
**A.** inconclusive [inhibitor, single point]

**Q.** Which Potency does the source give for `Cc1cc(OC(C)C(=O)NCc2ccccn2)c2c(C)c(Cc3ccccc3)c(=O)oc2c1` (stereo not given) here?
**A.** inconclusive [inhibitor, partial curve]

**Q.** Which Potency does the source give for `COc1ccc(NS(=O)(=O)c2cccc(NC(=O)NC3CCCCC3)c2)cc1` here?
**A.** inconclusive [inhibitor, partial curve]

**Q.** Which Potency does the source give for `O=C(CN1C(=O)C(=O)N(Cc2ccccc2)C1=O)Nc1cc(Cl)cc(Cl)c1` here?
**A.** inconclusive [inhibitor, full curve]

**Q.** How did the Potency turn out when `O=C(COC(=O)c1cccc(S(=O)(=O)N2CCN(c3ccccc3)CC2)c1)NCc1ccco1` was run?
**A.** inactive

**Q.** Which Potency does the source give for `Cc1snc(S(=O)(=O)/C(C#N)=N/Nc2cccc(C(F)(F)F)c2)c1C#N` here?
**A.** inconclusive [inhibitor, single point]

**Q.** `COc1ccccc1N1CCN(C(=O)c2cc3c(=O)n(C)c4ccccc4c3n2C)CC1` was tested. Which Potency did it give?
**A.** inconclusive [inhibitor, full curve, poor fit]

**Q.** How did the Potency turn out when `O=C(Nc1ccc2oc(-c3cccnc3)nc2c1)c1ccc2c(c1)OCCO2` was run?
**A.** inconclusive [inhibitor, partial curve]

**Q.** `Cc1cc(C)nc(CCNC(=O)c2cc(COc3ccccc3)on2)n1` was tested. Which Potency did it give?
**A.** inactive

**Q.** Which Potency does the source give for `CC(C#N)Sc1nnc(Nc2ccccc2)s1` (stereo not given) here?
**A.** inactive

**Q.** With `CCOc1cc(C(=O)NCc2ccncc2)cc(OCC)c1OCC` as the molecule, how does the Potency read?
**A.** inconclusive [inhibitor, single point]

**Q.** With `O=C(c1cccc(C(F)(F)F)c1)C1CCCN(Cc2cccn2-c2ccccn2)C1` (stereo not given) as the molecule, how does the Potency read?
**A.** inactive

**Q.** `CN(C)CCCN(C(=O)CCc1ccccc1)c1nc2ccc(Cl)cc2s1` was tested. Which Potency did it give?
**A.** inconclusive [inhibitor, single point]

**Q.** `COc1ccc(CN2C(=NC(=O)c3ccccc3)SC3CS(=O)(=O)CC32)cc1OC` (stereo not given) was tested. Which Potency did it give?
**A.** inconclusive [inhibitor, partial curve]

**Q.** Which Potency does the source give for `O=[N+]([O-])c1cc2c(cc1CN1CCN(CCOCCO)CC1)OCO2` here?
**A.** inconclusive [inhibitor, full curve]

**Q.** How did the Potency turn out when `CSCCC1NC(=O)N(CC(=O)Nc2ccc(-c3ccccc3)cc2)C1=O` (stereo not given) was run?
**A.** inconclusive [inhibitor, single point]

**Q.** How did the Potency turn out when `COc1ccc(/C=C2\SC(=S)N(CCC(=O)N3CCCCC3CCO)C2=O)cc1` (stereo not given) was run?
**A.** inconclusive [inhibitor, partial curve]

**Q.** `Cc1ccc(-c2nnc(Nc3ccc4c(c3)OCO4)c3ccccc23)cc1S(N)(=O)=O` was tested. Which Potency did it give?
**A.** inconclusive [inhibitor, partial curve, poor fit]

**Q.** Which Potency does the source give for `Cc1nc2ccc(NC(=O)c3ccc(S(=O)(=O)N(C)c4ccccc4)cc3)cc2s1` here?
**A.** inconclusive [inhibitor, single point]

**Q.** How did the Potency turn out when `CCc1ccc(NC(=O)CCNC(=O)Cn2ccc3ccccc3c2=O)cc1` was run?
**A.** inconclusive [inhibitor, single point]

**Q.** How did the Potency turn out when `Cn1cccc1C(=O)C(=O)Nc1ccccc1C(F)(F)F` was run?
**A.** inactive

**Q.** How did the Potency turn out when `O=C(COc1ccc2ccccc2c1)Nc1ccc(Cc2ccncc2)cc1` was run?
**A.** inconclusive [inhibitor, partial curve, poor fit]

**Q.** `CCOc1cccc(NC(=O)/C(C#N)=C\c2cccnc2)c1` was tested. Which Potency did it give?
**A.** inconclusive [inhibitor, partial curve, poor fit]

**Q.** With `Nc1ncnc2c1ncn2[C@@H]1O[C@H](CNC(=O)[C@@H](N)CO)[C@@H](O)[C@H]1O` as the molecule, how does the Potency read?
**A.** inactive

**Q.** `O=C(Nc1cccc(Cl)c1)c1cc(N=Nc2ccc([N+](=O)[O-])cc2Cl)ccc1O` was tested. Which Potency did it give?
**A.** inconclusive [inhibitor, single point]

**Q.** Which Potency does the source give for `COc1cc(/C=C2/SC(=S)N(c3c(C)n(C)n(-c4ccccc4)c3=O)C2=O)ccc1O` here?
**A.** inconclusive [inhibitor, single point]

**Q.** `COc1ccc(NC(=O)Nc2ccc3c(c2)C(=O)N([C@H](C)CO)C[C@H](C)[C@@H](CN(C)C(=O)NC(C)C)O3)cc1` was tested. Which Potency did it give?
**A.** inconclusive [inhibitor, partial curve]
